The other results are listed elsewhere or left out. Single values of this set are uncertain. Values with irradiation are relative to irradiated vehicle.
The compounds below were run on A549-Dual (assay: NF-kB reporter (SEAP) activity, viability-corrected, relative to vehicle (fold change vs vehicle); higher = more activation of STING-IRF / NF-kB immune response reporter). Conditions: 10 µM; irradiation: none.
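Also: viability correction based on the alamar blue assay, with concentrations leaving 10% survival or less dropped.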

Row | SMILES | NF-kB reporter
1 | CN1CCc2nc(C(=O)NC3CC(C(=O)N(C)C)CCC3NC(=O)C(=O)Nc3ccc(Cl)cn3)sc2C1.Cc1ccc(S(=O)(=O)O)cc1.O (stereo unspecified) [Edoxaban] | 0.822
2 | O=C1C(O)=C(C2CCC(c3ccc(Cl)cc3)CC2)C(=O)c2ccccc21 (stereo unspecified) [Atovaquone] | 1.63
3 | CNC1C(O)C(OC2C(NC(=O)C(O)CN)CC(N)C(OC3OC(CN)C(O)C(O)C3O)C2O)OCC1(C)O.O=S(=O)(O)O (stereo unspecified) [Isepamicin Sulphate] | 0.917
4 | Cc1cccc(Nc2ccncc2S(=O)(=O)NC(=O)NC(C)C)c1 [Torsemide] | 0.976
5 | Nc1ccc(S(=O)(=O)[N]([Na])c2cnc3ccccc3n2)cc1 [Sulfaquinoxaline sodium] | 1.18
6 | O=C1CC(c2ccc(O)c(O)c2)Oc2cc(O)cc(O)c21 (stereo unspecified) [Eriodictyol] | 2.75
7 | Cc1ncc(CSSCc2cnc(C)c(O)c2CO)c(CO)c1O [Pyrithioxin] | 0.722
8 | CCOC(=O)C(CCc1ccccc1)NC1CCc2ccccc2N(CC(=O)O)C1=O.Cl (stereo unspecified) [Benazepril HCl] | 0.893
9 | COc1ccc(Cl)cc1C(=O)NCCc1ccc(S(=O)(=O)NC(=O)NC2CCCCC2)cc1 [Glyburide (Glibenclamide)] | 0.788
10 | C[N+](C)(C)CCOP(=O)([O-])OP(=O)([O-])OCC1OC(n2ccc(N)nc2=O)C(O)C1O.[Na+] (stereo unspecified) [Citicoline sodium] | 1.08
11 | C=CC(C)(O)CC/C=C(\C)CCC=C(C)C (stereo unspecified) [Nerolidol] | 0.501

— the supplement of paper PMC9174493
